Results: PubChem BioAssay AID1768 (National Center for Advancing Translational Sciences (NCATS), 2009)
Where “and” joins values, the source holds several entries; their conditions need not be identical. Equal entries are not always repeated. Among all 270,000 compounds or so, about 620 (0.23%) were called active. Inconclusive means that the source gave no clear call. Such entries were picked first, then a sample of the others. Calls come from the whole dose curve; as a rule, active = well fitted inhibition curve with a large enough effect in the polarisation, with a control signal flat (not every such curve was filed as active); inconclusive = small, poorly fitted or top-dose-only effect, or effect the other way, or a change in a side signal; inactive = no such curve, though single readings can be large or run the other way; the % refers to the polarisation. Where the call is inconclusive, the potency comes from a doubtful curve fit. “Side channel” marks fits to a control or component signal instead of the main read-out.

Each compound was assayed against Menin (Homo sapiens) (UniProt O00255) (assay: qHTS Assay for Inhibitors Targeting the Menin-MLL Interaction in MLL Related Leukemias: Competition With Texas Red Labeled MLL-derived Mutant Peptide). Conditions: fluorescence polarization; series mostly up to 61.6 µM.
Sequence of UniProt O00255 (O00255 whole entry, looked up): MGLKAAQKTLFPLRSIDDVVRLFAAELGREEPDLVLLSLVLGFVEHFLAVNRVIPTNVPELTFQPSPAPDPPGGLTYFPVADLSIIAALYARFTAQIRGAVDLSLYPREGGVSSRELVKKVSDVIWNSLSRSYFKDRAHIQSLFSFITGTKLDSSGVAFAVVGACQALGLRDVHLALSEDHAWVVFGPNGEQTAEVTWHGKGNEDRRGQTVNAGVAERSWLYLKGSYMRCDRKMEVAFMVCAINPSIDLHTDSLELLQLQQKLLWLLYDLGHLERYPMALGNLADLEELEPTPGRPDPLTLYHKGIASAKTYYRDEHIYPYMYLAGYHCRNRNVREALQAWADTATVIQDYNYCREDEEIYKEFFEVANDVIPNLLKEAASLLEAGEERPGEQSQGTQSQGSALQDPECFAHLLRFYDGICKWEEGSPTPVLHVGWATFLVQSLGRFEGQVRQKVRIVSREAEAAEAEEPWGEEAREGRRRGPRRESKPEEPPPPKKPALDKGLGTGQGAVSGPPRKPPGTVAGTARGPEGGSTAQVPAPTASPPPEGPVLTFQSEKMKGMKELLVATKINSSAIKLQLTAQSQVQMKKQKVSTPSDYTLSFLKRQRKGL
Potency is the fitted concentration of half-maximal effect; tags give direction and shape of the fitted curve or compound fluorescence and quenching.

SMILES	Potency
CCOc1ccc2nc(NC(=O)C(CC)Sc3nc(C)cc(=O)[nH]3)sc2c1 (stereo unspecified)	inconclusive: 39.8 µM [quencher, side channel, single point]
CC(C)C(c1nnnn1Cc1ccc(F)cc1)N1CCN(C2CCCC2)CC1 (stereo unspecified)	inconclusive: 4.47 µM [inhibitor, full curve]
Cc1ccc2[nH]c(C)c(/C=N/Nc3nc4ccccc4s3)c2c1	inconclusive: 5.62 µM [quencher, side channel, partial curve]
Cc1ccc(NC(=O)CSc2sc3c(O)cc(=O)[nH]c3c2C#N)c(F)c1	inconclusive: 22.4 µM [quencher, side channel, partial curve]
CC(O)CNc1nc2c(c(=O)n(Cc3ccc(Cl)cc3)c(=O)n2C)n1C (stereo unspecified)	inactive
CCOC(=O)C1=C(C)N=c2s/c(=C/c3cccc([N+](=O)[O-])c3O)c(=O)n2C1c1cc(OC)c(OC)c(OC)c1 (stereo unspecified)	inconclusive: 2.82 µM [quencher, side channel, partial curve]
Cc1ccccc1Cc1c(C)nc2nc(SCC(=O)NCc3ccco3)nn2c1C	inconclusive: 20 µM [inhibitor, single point]
NC(=O)CSc1nnc(-c2cc3ccccc3o2)n1Cc1ccccc1	inconclusive: 15.8 µM [inhibitor, partial curve]
COC(=O)c1ccc(Oc2coc3cc(OCc4ccc([N+](=O)[O-])cc4)ccc3c2=O)cc1	inconclusive: 15.8 µM [quencher, side channel, partial curve]
COC(=O)c1ccccc1NC(=O)CSc1nnc(COc2cccc(OC)c2)n1C	inconclusive: 14.1 µM [fluorescent, side channel, partial curve]
OC(COc1ccccc1Cl)CN1CCN(CC(O)COc2ccccc2Cl)CC1 (stereo unspecified)	inconclusive: 4.47 µM [fluorescent, side channel, full curve, poor fit]
CC(C)CNC(=O)c1cccc(NC(=O)c2ccc(Cl)c([N+](=O)[O-])c2)c1	inconclusive: 12.6 µM [quencher, side channel, partial curve]
CS(=O)(=O)Nc1ccc(C2=NN(C(=O)c3ccccc3)C(c3cccs3)C2)cc1 (stereo unspecified)	inconclusive: 25.1 µM [quencher, side channel, single point]
Cc1ccc(-c2ccc(/C=C(\C#N)C(N)=S)o2)c([N+](=O)[O-])c1	inconclusive: 15.8 µM [quencher, side channel, partial curve]
Cc1ccc(/C=C2/NC(=O)N(Cc3ccccc3F)C2=O)s1	inactive
O=C(c1ccc(-c2ccccc2)cc1)N1CCN(c2ccccc2)CC1	inconclusive: 39.8 µM [fluorescent, side channel, single point]
Clc1ccc(-c2nnc(NCCN3CCCC3)c3ccccc23)cc1	inconclusive: 12.6 µM [fluorescent, side channel, partial curve]
COc1ccc(-c2csc(NC(=O)CSc3nnc(Nc4ccccc4C)s3)n2)cc1	inconclusive: 5.01 µM [inhibitor, full curve]
COc1ccccc1CC(=O)Nc1ccc(-c2noc(COc3cccc(C)c3C)n2)cc1	inconclusive: 11.2 µM [quencher, side channel, partial curve]

SMILES	Potency
Cc1ccc(-n2ncc3c(NNC(=O)c4ccco4)ncnc32)cc1Cl	inconclusive: 28.2 µM [quencher, side channel, single point]
CCC(CC)N1CCN(C(=O)c2cccc(Cl)c2)CC1	inconclusive: 22.4 µM [inhibitor, single point]
CN(C)C(=O)c1ccc2c(c1[N+](=O)[O-])C(=O)c1ccccc1C2=O	inactive
C=CCC1(CC=C)CCCN1C(=O)CC1C(=O)NCCN1Cc1cccc(OC)c1 (stereo unspecified)	inconclusive: 1.26 µM [fluorescent, side channel, full curve, poor fit]
C/C(=C\c1ccccc1)C(=O)Nc1nc2ccc([N+](=O)[O-])cc2s1	inconclusive: 31.6 µM [quencher, side channel, single point]
CC(C)(c1ccccc1)c1ccc(OCCCN2CCNCC2)cc1	inconclusive: 10 µM [fluorescent, side channel, partial curve]
O=C(O)c1ccccc1C(=O)Nc1ccccn1	inconclusive: 35.5 µM [inhibitor, single point]
CC(C)(C)OC(=O)NCCCCCNC(=O)c1[nH]cnc1C(=O)N[C@@H](CCCCNC(=O)OC(C)(C)C)C(=O)OC(C)(C)C	inconclusive: 0.891 µM [fluorescent, side channel, full curve]
CCC(C)NC(=O)CNC(=O)c1nn(-c2ccc(OC)c(Cl)c2)c(=O)c2ccccc12 (stereo unspecified)	inconclusive: 39.8 µM [inhibitor, single point]
O=C(N/N=C/c1ccc2ccccc2c1)c1ccc(COc2ccc3c(c2)CCC3)o1	inconclusive: 11.2 µM [inhibitor, partial curve]
CN(CCOc1ccc(Cl)cc1)c1ccc(S(=O)(=O)N2CCCCC2)cn1	inconclusive: 22.4 µM [quencher, side channel, single point]
CC[n+]1c(-c2ccc(C)cc2)csc1Nc1c(C)n(C)n(-c2ccccc2)c1=O	inconclusive: 17.8 µM [fluorescent, side channel, partial curve]
Cc1ccc(/C([O-])=C(/C(=S)NCc2ccco2)[n+]2ccccc2)cc1[N+](=O)[O-]	inconclusive: 28.2 µM [quencher, side channel, single point]
O=C(CN1CCC(n2nnc3cc(F)ccc32)CC1)Nc1ccc2c(c1)CCC2	inactive
COc1cccc2c(=O)c(C/C=C(/C)Cl)c(C)[nH]c12	inactive
Cc1c(C(=O)N/N=C/c2ccc(Cl)cc2)[nH]c2ccc(Cl)cc12	inconclusive: 39.8 µM [inhibitor, single point]
O=c1c(O)c(-c2ccc(O)cc2O)oc2cc(O)cc(O)c12	inconclusive: 15.8 µM [quencher, side channel, partial curve] and inconclusive: 11.2 µM [quencher, side channel, partial curve] and inconclusive: 20 µM [quencher, side channel, partial curve]
COc1ccc2[nH]c(C)c(CCN(Cc3cccs3)C(=S)Nc3ccccc3OC)c2c1	inconclusive: 25.1 µM [quencher, side channel, single point]
Cc1cc(C(F)(F)F)c2c(=O)[nH]c(=O)n(Cc3ccccc3)c2n1	inactive

SMILES	Potency
CC(C)CCn1cnc2c(sc3nc4c(cc32)CSC(C)(C)C4)c1=O	inconclusive: 7.08 µM [fluorescent, side channel, single point]
CCNc1ncc2nc(-c3ccccc3)c(=O)n(Cc3cccc(OC)c3)c2n1	inactive
N#C/C(=C(/O)CSc1ccccn1)c1nc2ccccc2s1	inconclusive: 39.8 µM [quencher, side channel, single point]
S=C(NCC1COc2ccccc2O1)Nc1ccc(Br)cc1 (stereo unspecified)	inconclusive: 22.4 µM [quencher, side channel, single point]
CCC(C(=O)NCCCN(CC)Cc1ccccc1)n1nc(C)c2sc3ccccc3c2c1=O (stereo unspecified)	inconclusive: 10 µM [inhibitor, partial curve]
CCOc1ccccc1N1CCN(C(=S)NCc2ccco2)CC1	inconclusive: 4.47 µM [inhibitor, single point]
COc1ccc(CNc2nc(-c3ccc4c(c3)OCO4)nc3ccccc23)c(OC)c1	inconclusive: 10 µM [quencher, side channel, partial curve]
O=C(N/N=C/c1cccc2ccccc12)c1cc(C2CC2)[nH]n1	inconclusive: 22.4 µM [quencher, side channel, single point]
COc1ccc(CNCC(C)NCc2ccc(OC)c(OC)c2)cc1OC (stereo unspecified)	inconclusive: 3.16 µM [inhibitor, full curve]
COc1ccc(CCNC(=O)c2ccc(-c3cccc([N+](=O)[O-])c3)o2)cc1OC	inconclusive: 25.1 µM [quencher, side channel, single point]
CCOC(=O)C1=C(C)Nc2nnnn2C1c1cccc(OC)c1OC (stereo unspecified)	inactive
CC1Cc2nc(SCC(=O)Nc3ccc4c(c3)OCO4)n(Cc3ccccc3)c(=O)c2S1 (stereo unspecified)	inconclusive: 44.7 µM [inhibitor, single point]
COc1ccc2nc3c(cc2c1)Cn1c-3nc2ccccc2c1=O	inactive
Cc1cc(OC(C)C(=O)Nc2ccc(S(=O)(=O)Nc3onc(C)c3C)cc2)cc(C)c1Cl (stereo unspecified)	inconclusive: 35.5 µM [quencher, side channel, single point]
CCOc1ccc(N(C)S(=O)(=O)c2ccc(C)c(C(=O)OCC(=O)c3c[nH]c4ccccc34)c2)cc1	inconclusive: 12.6 µM [inhibitor, partial curve]
C/C(=N\Nc1ccc([N+](=O)[O-])cc1)c1ccc2c(c1)OCO2	inconclusive: 14.1 µM [quencher, side channel, partial curve]
O=C1c2ccccc2S(=O)(=O)N1Cc1cc(=O)n2ccsc2n1	inconclusive: 1.58 µM [inhibitor, full curve]
CCN(CC)c1ccc(/C=N/N2CCOCC2)c(O)c1	inactive
